Data on 172 sequences can be found in paper PMC4242493.

The other results are listed elsewhere or left out. The list includes weakly bound sequences.

In the experiment the target is MaxL homodimer (UniProt P61244). Kind of experiment: universal protein-binding microarray (PBM). The settings on record: PBS-based mixture, 10 nM His-tagged protein dimer, 2% milk, 200 ng/uL BSA, 50 ng/uL salmon testes DNA, 0.02% TX-100; detection with Alexa 488 anti-His …; high values mean tight binding; most listed sequences are background and not binding sites; double strand, one strand shown.
Sequence of UniProt P61244 (P61244 whole entry): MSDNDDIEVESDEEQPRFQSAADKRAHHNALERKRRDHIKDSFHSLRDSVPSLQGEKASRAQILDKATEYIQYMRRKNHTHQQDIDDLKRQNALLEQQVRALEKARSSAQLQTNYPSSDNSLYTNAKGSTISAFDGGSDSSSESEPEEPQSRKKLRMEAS
With ACTTATAA, the binding signal (normalized occupancy) worked out at 0.0774.

For the sequence CAGCGCTA, the binding signal (normalized occupancy) stood at 0.07.

Take ATTCTCCG: the binding signal (normalized occupancy) turned out to be 0.0714.

As to CCGTTTGC, the binding signal (normalized occupancy) worked out at 0.0669.

For the sequence ATCGACAT, the binding signal (normalized occupancy) came to 0.0817.

CTCTGGCA: the binding signal (normalized occupancy) was determined as 0.068.

GTGATGCA: the binding signal (normalized occupancy) came out at 0.0849.

For TATTTCAA, the binding signal (normalized occupancy) stood at 0.0812.

Consider GTACATCA, for which the binding signal (normalized occupancy) is 0.0813.

Consider AGATAGTG, for which the binding signal (normalized occupancy) is 0.0756.

As for TCACCGCA, the binding signal (normalized occupancy) turned out to be 0.0739.

With ATATGTAA, the binding signal (normalized occupancy) was 0.0818.

Regarding GCAGATTA, the binding signal (normalized occupancy) is 0.0795.

ATAGCTGG: the binding signal (normalized occupancy) stood at 0.0693.

For CCCGGTTA, the binding signal (normalized occupancy) was 0.0725.

Turning to GTTTTAAA, the binding signal (normalized occupancy) worked out at 0.073.

For the sequence AGGTATGC, the binding signal (normalized occupancy) amounted to 0.0813.

Take ACCATTTG: the binding signal (normalized occupancy) came to 0.0777.

With ATGCTCAG, the binding signal (normalized occupancy) turned out to be 0.0787.

For CTTCTAAC, the binding signal (normalized occupancy) is 0.07.

With ATAACCTC, the binding signal (normalized occupancy) was 0.0862.

On to GTCCCGAC, for which the binding signal (normalized occupancy) came out at 0.0732.

For the sequence CATCCACG, the binding signal (normalized occupancy) was 0.108.

Turning to CTCCTTGC, the binding signal (normalized occupancy) is 0.0749.

As for ATGGCACA, the binding signal (normalized occupancy) came out at 0.0786.

In the case of AGTCGTAG, the binding signal (normalized occupancy) worked out at 0.0702.

For the sequence CGCATCCC, the binding signal (normalized occupancy) came out at 0.0821.

CGACTCCC: the binding signal (normalized occupancy) stood at 0.0754.

For CGCACATA, the binding signal (normalized occupancy) is 0.0812.

For GAGAGTGC, the binding signal (normalized occupancy) was 0.0808.

Regarding TAGGCCGA, the binding signal (normalized occupancy) amounted to 0.0661.

As for ACATTGGT, the binding signal (normalized occupancy) is 0.0773.

For AGACGCAC, the binding signal (normalized occupancy) stood at 0.0752.

With ATTGTCTA, the binding signal (normalized occupancy) is 0.0825.

For the sequence CGAAAAAA, the binding signal (normalized occupancy) stood at 0.0757.

Consider GGCTCAAA, for which the binding signal (normalized occupancy) was 0.0652.

Turning to AGACTTAT, the binding signal (normalized occupancy) came out at 0.0756.

For the sequence AATAATGA, the binding signal (normalized occupancy) was 0.0809.

On to ACTCATTA, for which the binding signal (normalized occupancy) is 0.0832.

On to ATAAAATC, for which the binding signal (normalized occupancy) came out at 0.077.

With GTAATGGA, the binding signal (normalized occupancy) turned out to be 0.0779.

For GAATCGCA, the binding signal (normalized occupancy) turned out to be 0.0692.

CACCGAAG: the binding signal (normalized occupancy) came out at 0.0697.

Consider CAATGCTA, for which the binding signal (normalized occupancy) amounted to 0.074.

Turning to ATGGGGGG, the binding signal (normalized occupancy) is 0.086.

Turning to AAGTGTAC, the binding signal (normalized occupancy) was 0.0817.

For AGCTCGAC, the binding signal (normalized occupancy) is 0.0648.

For the sequence CTCCTAAG, the binding signal (normalized occupancy) came to 0.0719.

In the case of ACCTACGA, the binding signal (normalized occupancy) is 0.0696.

In the case of ATTGACAA, the binding signal (normalized occupancy) was 0.0724.

As for CAAGTGAG, the binding signal (normalized occupancy) was 0.0728.

With GCTTGGCC, the binding signal (normalized occupancy) was determined as 0.0711.

As for CGCGGACG, the binding signal (normalized occupancy) came to 0.0684.

Regarding ACGAGGGG, the binding signal (normalized occupancy) turned out to be 0.0927.

For the sequence AGAAAAAA, the binding signal (normalized occupancy) amounted to 0.0669.

As for GTGTACCA, the binding signal (normalized occupancy) came out at 0.0797.

On to AAAGCTAA, for which the binding signal (normalized occupancy) was determined as 0.0691.

With TAGCCTAA, the binding signal (normalized occupancy) was 0.073.

With CACGGCCA, the binding signal (normalized occupancy) came to 0.0765.

Turning to CACAGATA, the binding signal (normalized occupancy) was determined as 0.076.

With ACAGGATA, the binding signal (normalized occupancy) stood at 0.0758.

With GGAACTGA, the binding signal (normalized occupancy) turned out to be 0.0733.

Turning to GACTGCGA, the binding signal (normalized occupancy) worked out at 0.0684.

For TTATCGAA, the binding signal (normalized occupancy) came to 0.0724.

Consider CGGGCCAC, for which the binding signal (normalized occupancy) worked out at 0.0694.

For the sequence ATCTCCTG, the binding signal (normalized occupancy) is 0.0781.

With ATGTTAGC, the binding signal (normalized occupancy) turned out to be 0.0865.

With GTAACTAA, the binding signal (normalized occupancy) was 0.0701.

Take GAACTGGC: the binding signal (normalized occupancy) was found to be 0.0668.

On to ACGTCGGA, for which the binding signal (normalized occupancy) is 0.0723.

As for ATTATTTA, the binding signal (normalized occupancy) stood at 0.073.

For the sequence TATCCACA, the binding signal (normalized occupancy) was 0.0827.

On to GAAAACAC, for which the binding signal (normalized occupancy) stood at 0.077.

With GATAGCGC, the binding signal (normalized occupancy) was 0.0768.

As for CTCTAGTC, the binding signal (normalized occupancy) was 0.0712.

Take CATCTTTA: the binding signal (normalized occupancy) was found to be 0.0754.

Consider ATTGATCC, for which the binding signal (normalized occupancy) worked out at 0.0795.

For the sequence GCCGCTAC, the binding signal (normalized occupancy) was 0.0682.

Turning to AAGGCAGT, the binding signal (normalized occupancy) stood at 0.0705.

Turning to ATACAAGG, the binding signal (normalized occupancy) is 0.0755.

For the sequence CTACATGA, the binding signal (normalized occupancy) was found to be 0.0856.

On to AGGCACAT, for which the binding signal (normalized occupancy) was 0.098.

For the sequence CCGAGCCC, the binding signal (normalized occupancy) came out at 0.0666.

Consider AGTGTGAT, for which the binding signal (normalized occupancy) was determined as 0.0839.

Regarding AAACAGAC, the binding signal (normalized occupancy) came to 0.0744.

On to CGACCTGC, for which the binding signal (normalized occupancy) worked out at 0.0697.

For ATGCTCCA, the binding signal (normalized occupancy) came to 0.0829.

In the case of AGGGATCC, the binding signal (normalized occupancy) amounted to 0.067.

Take ATTTGTGC: the binding signal (normalized occupancy) was determined as 0.0777.

Regarding ATACATGC, the binding signal (normalized occupancy) came to 0.104.

With AGCAACAC, the binding signal (normalized occupancy) came to 0.0752.

CCCGACCG: the binding signal (normalized occupancy) was found to be 0.0696.

With ACACGTCA, the binding signal (normalized occupancy) was found to be 0.0865.

In the case of CAACTGCC, the binding signal (normalized occupancy) was determined as 0.067.

As to AACCGAAC, the binding signal (normalized occupancy) stood at 0.0694.

On to GTACGCCA, for which the binding signal (normalized occupancy) was found to be 0.077.

For the sequence ACGGTGCG, the binding signal (normalized occupancy) came out at 0.0738.

Consider GACGGACA, for which the binding signal (normalized occupancy) amounted to 0.0762.

As for CCCGCGAA, the binding signal (normalized occupancy) stood at 0.0716.

AGGCAAGC: the binding signal (normalized occupancy) is 0.0713.

In the case of CCAGCTGG, the binding signal (normalized occupancy) worked out at 0.0717.

ATTCTAAA: the binding signal (normalized occupancy) worked out at 0.0725.

As for AGGTAAGG, the binding signal (normalized occupancy) amounted to 0.0722.

Take AGTCGCAC: the binding signal (normalized occupancy) was found to be 0.0809.

In the case of GATTATCA, the binding signal (normalized occupancy) came out at 0.0803.

On to CGGGCTTC, for which the binding signal (normalized occupancy) was found to be 0.064.

In the case of CGGGGAAC, the binding signal (normalized occupancy) is 0.0801.

With ATTCCCGA, the binding signal (normalized occupancy) came out at 0.0756.

GGGCCCGA: the binding signal (normalized occupancy) was 0.0708.

As for ATAAATTA, the binding signal (normalized occupancy) worked out at 0.0802.

As to GACGCCTC, the binding signal (normalized occupancy) amounted to 0.0726.

GACACACC: the binding signal (normalized occupancy) is 0.0876.

AGCAGAAG: the binding signal (normalized occupancy) was 0.0755.

In the case of AGCCATGC, the binding signal (normalized occupancy) stood at 0.0996.

In the case of TGCCAGCA, the binding signal (normalized occupancy) was 0.0771.

For GCTTTACC, the binding signal (normalized occupancy) amounted to 0.0768.

For CGGCCGTA, the binding signal (normalized occupancy) was 0.0679.

As for ACAGAGTG, the binding signal (normalized occupancy) came to 0.0709.

For CATCATGG, the binding signal (normalized occupancy) is 0.0895.

For the sequence TCAAAGAA, the binding signal (normalized occupancy) was determined as 0.0762.

Consider GGTCTTAC, for which the binding signal (normalized occupancy) stood at 0.0751.

As to AAACACGA, the binding signal (normalized occupancy) amounted to 0.0848.

Consider CAGCTCGC, for which the binding signal (normalized occupancy) was determined as 0.0692.

TACTCGCA: the binding signal (normalized occupancy) is 0.0752.

With AGCATCAA, the binding signal (normalized occupancy) amounted to 0.0728.

Take AGCTTAGC: the binding signal (normalized occupancy) was 0.0725.

Regarding CCAGATAA, the binding signal (normalized occupancy) is 0.0789.

Regarding ACTATCAT, the binding signal (normalized occupancy) was found to be 0.085.

For AGCATCAG, the binding signal (normalized occupancy) was found to be 0.0766.

Regarding TATAAGAA, the binding signal (normalized occupancy) stood at 0.0821.

For AGACTGTA, the binding signal (normalized occupancy) was 0.0748.

For the sequence GAGGGAAC, the binding signal (normalized occupancy) stood at 0.0739.

For ATGCCCCA, the binding signal (normalized occupancy) came out at 0.0786.

Regarding CTGTAGGC, the binding signal (normalized occupancy) worked out at 0.0724.

Consider ATGGGAGA, for which the binding signal (normalized occupancy) amounted to 0.0839.

Take AGTCGAAC: the binding signal (normalized occupancy) turned out to be 0.0714.

In the case of ACAAAAGA, the binding signal (normalized occupancy) was determined as 0.0779.

Regarding CGATCTGA, the binding signal (normalized occupancy) was found to be 0.0701.

Regarding GGGAACAA, the binding signal (normalized occupancy) amounted to 0.0766.

As for CGTTCACA, the binding signal (normalized occupancy) came out at 0.0787.

GAGCAGCA: the binding signal (normalized occupancy) was determined as 0.0762.

For the sequence CTACACAC, the binding signal (normalized occupancy) came out at 0.093.

As to CCTCGACC, the binding signal (normalized occupancy) was 0.0736.

Turning to TAAGTCGA, the binding signal (normalized occupancy) came to 0.0739.

As for AGTTTTAT, the binding signal (normalized occupancy) was 0.0775.

With GTCACAGA, the binding signal (normalized occupancy) was determined as 0.0741.

Take ATCGGCCG: the binding signal (normalized occupancy) was found to be 0.0669.

Take AATTGGGA: the binding signal (normalized occupancy) came out at 0.0784.

ATGGCCCG: the binding signal (normalized occupancy) was determined as 0.0714.

As for CCCTTGAA, the binding signal (normalized occupancy) amounted to 0.0754.

On to AGCGTCTG, for which the binding signal (normalized occupancy) stood at 0.0699.

Consider CTTAAGTC, for which the binding signal (normalized occupancy) is 0.0714.

Regarding CTGATGGC, the binding signal (normalized occupancy) worked out at 0.0797.

Turning to CTGGCGGC, the binding signal (normalized occupancy) is 0.0663.

As to AAGAACTT, the binding signal (normalized occupancy) worked out at 0.0721.

Consider ATTGATGA, for which the binding signal (normalized occupancy) is 0.0809.

On to CGTGAAAC, for which the binding signal (normalized occupancy) worked out at 0.0779.

As to GGAGAGGA, the binding signal (normalized occupancy) turned out to be 0.0702.

For the sequence ACCGACGT, the binding signal (normalized occupancy) worked out at 0.0675.

As for CAAGCCGG, the binding signal (normalized occupancy) amounted to 0.0671.

Consider ACGCCCGG, for which the binding signal (normalized occupancy) was determined as 0.0705.

In the case of AAAACGTA, the binding signal (normalized occupancy) came out at 0.0744.

With AGTAACAG, the binding signal (normalized occupancy) amounted to 0.071.

Take CCAGTGCC: the binding signal (normalized occupancy) turned out to be 0.0713.

Turning to AGTTCGCC, the binding signal (normalized occupancy) came to 0.0678.

As for GTATTAAA, the binding signal (normalized occupancy) worked out at 0.0765.

Consider CTGCAGTA, for which the binding signal (normalized occupancy) was 0.0706.

For the sequence CCGTGTAA, the binding signal (normalized occupancy) is 0.0797.

As for AGACTTGA, the binding signal (normalized occupancy) is 0.072.

As for CGAAGTTC, the binding signal (normalized occupancy) is 0.0686.

Take GAGGGAGC: the binding signal (normalized occupancy) is 0.0727.

Regarding ATCACAAA, the binding signal (normalized occupancy) was 0.0814.
